# Laboratory results published in PubChem BioAssay AID927 (National Center for Advancing Translational Sciences (NCATS), 2007).
# In all, about 60,000 compounds went through this assay and about 65 (0.1%) were called active. The inconclusive results got no clear call from the source; some entries with a clear call stand among them for comparison. Calls come from the whole dose curve; as a rule, active = well fitted inhibition curve with a large enough effect; inconclusive = small, poorly fitted or top-dose-only effect; inactive = no such curve, though single readings can be large or run the other way. Potencies of inconclusive entries are doubtful fits and often do not repeat.
# Biological target: Ubiquitin carboxyl-terminal hydrolase 2 (Homo sapiens) (UniProt O75604)
# Assay: qHTS Assay for Inhibitors of Ubiquitin-specific Protease USP2a; note: nearly all actives have a fitted effect of over 60% in size
# Details: USP2a enzymatic assay; Potency: qHTS inhibition; series mostly up to 38.3 µM
# Outline: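 20 nM USP2 core + cpd, 30 min RT; add 20 nM Ub-PLA2/20 uM NBD C6-HPC; read Ex460/Em535 at 0 h and 2.5 h. Normalized to NEM; qHTS curve fit/classification.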
# Potency is the fitted concentration of half-maximal effect; tags give direction and shape of the fitted curve.
# Chain of UniProt O75604 (O75604 whole entry, looked up): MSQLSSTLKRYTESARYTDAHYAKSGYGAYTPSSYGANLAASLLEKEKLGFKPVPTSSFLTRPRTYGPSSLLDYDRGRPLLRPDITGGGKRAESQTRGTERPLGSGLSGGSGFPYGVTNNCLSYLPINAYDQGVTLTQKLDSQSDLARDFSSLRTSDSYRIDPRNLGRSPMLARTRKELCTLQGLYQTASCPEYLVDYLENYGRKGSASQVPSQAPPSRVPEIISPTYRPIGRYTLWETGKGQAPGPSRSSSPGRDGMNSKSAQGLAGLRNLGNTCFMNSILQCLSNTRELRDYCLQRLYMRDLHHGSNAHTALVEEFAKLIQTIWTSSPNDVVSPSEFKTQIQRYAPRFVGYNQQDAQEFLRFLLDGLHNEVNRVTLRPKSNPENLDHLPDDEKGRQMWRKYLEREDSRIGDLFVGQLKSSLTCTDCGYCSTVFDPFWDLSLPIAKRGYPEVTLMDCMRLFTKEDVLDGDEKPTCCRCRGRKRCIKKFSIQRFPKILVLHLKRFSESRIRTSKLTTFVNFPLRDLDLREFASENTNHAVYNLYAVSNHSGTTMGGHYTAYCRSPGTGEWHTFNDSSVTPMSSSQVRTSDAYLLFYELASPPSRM
row,Compound,Potency
1,CCn1c2ccccc2c2nc3ccccc3nc21,"inconclusive: 12.6 µM [inhibitor, single point]"
2,O=C(NCC(c1cccnc1)N1CCN(c2ccc(F)cc2)CC1)c1cccc(Cl)c1 (configuration not stated),inactive
3,CS(=O)(=O)Nc1cccc(-c2nc(NCc3ccccc3)c3ccccc3n2)c1,"inconclusive: 20 µM [inhibitor, single point]"
4,CCCCC(=O)N(CCOC)c1nnc(-c2ccc(OC)cc2)s1,active: 2 µM
5,COc1ccc2c(c1)CCc1c(C(=O)N3CCCc4ccccc43)noc1-2,"inconclusive: 25.1 µM [inhibitor, single point]"
6,COC(=O)c1ccc(OCC2c3cc(OC)c(OC)cc3CCN2C(=O)C2CC2)cc1 (configuration not stated),inactive
7,COc1ccc(-c2noc(N(C)CC(=O)Nc3cccc(C(F)(F)F)c3)n2)cc1,"inconclusive: 25.1 µM [inhibitor, single point]"
8,CCCCC(=O)OC1CCC2C3CCc4cc(O)ccc4C3CC[C@]12C (some centres not stated),"inconclusive: 20 µM [inhibitor, single point]"
9,COCCn1c(=O)c(C)nc2cncnc21,"inconclusive: 6.31 µM [inhibitor, partial curve]"
10,CCCN1C(=O)c2ccccc2NC1c1ccc(OC)cc1O (configuration not stated),"inconclusive: 20 µM [inhibitor, partial curve]"
11,O=C1C=CC(=O)c2c(O)c(Cl)c(Cl)c(O)c21,"inconclusive: 10 µM [inhibitor, single point]"
12,Cc1cc(C)nc(N2CCCC(C(=O)Nc3ccc4nc(C)c(C)nc4c3)C2)n1 (configuration not stated),inactive
13,Cc1ccc(C2C3=C(CC(C)(C)CC3=O)Nc3[nH]c(=S)[nH]c(=O)c32)cc1 (configuration not stated),"inconclusive: 12.6 µM [inhibitor, single point]"
14,COc1ccc(-c2nn3c(-c4ccc(F)cc4)nnc3s2)cc1,"inconclusive: 5.01 µM [inhibitor, partial curve]"
15,CC(C)OC(=O)C(C)(C)Oc1ccc(C(=O)c2ccc(Cl)cc2)cc1,"inconclusive: 6.31 µM [inhibitor, partial curve]"
16,CCCCn1c2nc3ccccc3nc2c2c(=O)n(C(C)CC)cnc21 (configuration not stated),inactive
17,O=C(Oc1cccnc1)c1cccc(Cl)c1,"inconclusive: 3.16 µM [inhibitor, single point]"
18,Cc1cc(C)nc(N2CCC(C(=O)O)CC2)n1,"inconclusive: 7.94 µM [inhibitor, partial curve]"
19,Cc1cccc(CNc2ncnc3ccc(-c4ccc5c(c4)OCO5)cc23)c1,"inconclusive: 12.6 µM [inhibitor, single point]"
20,COc1cccc(-c2nccc(NCc3cccc(C)c3)n2)c1,"inconclusive: 25.1 µM [inhibitor, single point]"
21,O=c1c(-c2ccccc2)coc2cc(O)cc(O)c12,"inconclusive: 6.31 µM [inhibitor, single point]"
22,Cc1csc2nc(CSc3nncn3-c3ccccc3)c(Br)n12,inactive
23,COc1ccc(-c2cc3nc(C)c(CCC(=O)NCc4ccco4)c(C)n3n2)c(OC)c1,inactive
24,c1csc(CNc2nc(-c3ccc4c(c3)OCO4)nc3ccccc23)c1,"inconclusive: 20 µM [inhibitor, single point]"

row,Compound,Potency
1,OC(COc1ccc(Br)cc1)CN1CCOCC1 (configuration not stated),"inconclusive: 0.501 µM [inhibitor, single point]"
2,Cc1ccc2nc(Nc3ccc4[nH]c(=O)[nH]c4c3)c(-n3nc(C)cc3C)nc2c1,"inconclusive: 25.1 µM [inhibitor, single point]"
3,CCC1CCCCN1C(=O)CSc1nnc(-c2ccc(Cl)s2)o1 (configuration not stated),"inconclusive: 31.6 µM [inhibitor, single point]"
4,O=C(c1cc(-n2cnnc2)ccc1Cl)N1CCN(c2nc(-c3ccccc3)cs2)CC1,inactive
5,CCSc1nnc(NC(=O)c2ccc(C)o2)s1,inactive
6,O=C1c2ccccc2C(=O)N1c1nc(-c2cccs2)cs1,"inconclusive: 10 µM [inhibitor, partial curve]"
7,O=S(=O)(c1ccc2ccccc2c1)n1cnc2ccccc21,"inconclusive: 15.8 µM [inhibitor, single point]"
8,COc1cc(NC(=O)c2cccs2)c(OC)cc1NC(=O)CCn1nnc2ccccc21,inactive
9,COc1ccc(C(=O)Nc2ccccc2C(=O)NC(C(=O)NCc2ccco2)C(C)C)cc1 (configuration not stated),inactive
10,Cc1ccc(CNC(=O)C2c3ccccc3C(=O)N(C)C2c2c[nH]c3ccccc23)o1 (configuration not stated),"inconclusive: 3.98 µM [inhibitor, single point]"
11,O=c1c(-c2ccccc2)nc2cnc(Oc3ccccc3)nc2n1C[C@H]1CCCO1,inactive
12,CC(CC1C(C#N)=C(N)SC(N)=C1C#N)c1ccccc1 (configuration not stated),"inconclusive: 1.58 µM [inhibitor, full curve]"
13,COCCNC(=O)C(c1ccco1)N(C(=O)Cn1nnc2ccccc21)c1ccccc1C (configuration not stated),inactive
14,Cc1cc(C)n(-c2nc3c(c(=O)n(C)c(=O)n3C)n2Cc2cccc(Br)c2)n1,inactive
15,CCN(CC)c1ccc(-c2nn3c(-c4n[nH]c5c4CCC5)nnc3s2)cc1,"inconclusive: 25.1 µM [inhibitor, single point]"
16,Cc1cc(=O)[nH]c(/N=C(\N)Nc2cccc3ccccc23)n1,"inconclusive: 12.6 µM [inhibitor, single point]"
17,CCOc1ccccc1NC(=O)CSc1ncnc2c1oc1ccccc12,inactive
18,Cc1ccccc1-c1nc(-n2ccnc2)c2ccccc2n1,"inconclusive: 12.6 µM [inhibitor, partial curve]"
19,Cc1ccc2[nH]c(=O)c(CN(Cc3cccs3)Cc3nnnn3Cc3ccccc3)cc2c1,inactive
20,COc1cccc(Nc2ncc3ncc(=O)n(CCc4ccccc4)c3n2)c1,"inconclusive: 3.16 µM [inhibitor, full curve, poor fit]"
21,COc1ccc(C2CC(=O)C3=C(C2)Nc2ncnn2C3c2ccccc2)cc1 (configuration not stated),inactive
22,COCCCn1c(SCC(=O)N2CCCC(C)C2)nnc1-c1ccco1 (configuration not stated),inactive
23,CCOC(=O)c1c(C)cc(O)c(C=O)c1O,"inconclusive: 10 µM [inhibitor, partial curve]"
